{
  "source": "paper PMC4588566",
  "about": "“A covalent homodimer probing early oligomers along amyloid aggregation” (Scientific Reports, 2015)",
  "proteins": {"B1": {"name": "S33C β2m variant (beta-2 microglobulin, Ser33 to Cys), one chain (natural protein)", "chain": "not shown", "notes": "beta-2 microglobulin (β2m), 99-residue globular protein, with Ser33 mutated to Cys; synthetic gene; also called Ser33 to Cys β2m variant; mutated β2m; source: E. coli BL21 (DE3), pET21B"}},
  "molecular_target": "the molecule itself",
  "experiment": "SEC; refolded S33C β2m without an added oxidation reaction; spontaneously formed covalent dimer separated on Superdex75 16/60, 20 mM sodium phosphate pH 7.4",
  "data": [
    {"protein": "B1", "values": [
      {"measurement": "stoichiometry N", "value": 2}
    ]}
  ]
}
